Measurements published in PMC5905293 (Molecular Biology of the Cell, 2018).

Target: the molecule itself
Assay: native gel or EMSA

B1: GJA[…]k (full-length connexin43) (natural protein)
chain: not shown
stoichiometry N: 6
